Test results: the supplement of paper PMC3334620
Over roughly 33,000 sequences, “E-score (-0.5 to 0.5)” has its median near -0.01; the highest 2% begin near 0.26. Some of the results follow.

target: Ste12 (UniProt P13574); test: PBM E-score (8-mer binding enrichment) (E-score (-0.5 to 0.5)); higher = stronger / more preferred TF binding; most listed sequences are background and not binding sites; conditions: protein concentration: 200 nM; construct: GST-DNA-binding domain
In short: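 Yeast transcription factors, full-length or as DNA-binding domains, were expressed with a GST tag using PURExpress in vitro transcription/translation. At about 100-200 nM they were applied to universal all-10-mer Agilent arrays, double-stranded by primer extension on fresh or once-stripped slides. Fluorescent anti-GST detected bound protein, and masliner normalised the scans. E-scores for ungapped eight-base words, pooled with reverse complements, came from the Universal PBM Analysis Suite.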

| Sequence | PBM E-score |
| --- | --- |
| CGACAGCC | 0.0223 |
| AAGACATC | -0.144 |
| CACGCAGG | 0.0557 |
| GTTAATGA | 0.12 |
| CACTCTTC | -0.0688 |
| ATCGGCAT | 0.0127 |
| TAGCGTCA | -0.105 |
| CCATAGCC | -0.277 |
| CAGCCCCG | -0.00856 |
| CCGGCCGA | -0.0039 |
| CATGTTAC | 0.195 |
| GTAGCAAA | 0.0457 |
| CAGTTGCA | -0.0529 |
| GGAAGATA | 0.128 |
| CGCACCTC | -0.0617 |
| AAGCTAGA | 0.0617 |
| ATAGCTGA | -0.00919 |
| GATTTCCA | 0.0343 |
| AAACCAGG | 0.167 |
| ACCCTCAC | -0.029 |
| ACTCTGAC | 0.0647 |
| AGCCAGAC | -0.132 |
| GGCCTAGA | 0.0115 |
| AGGTAGTC | -0.199 |
| GTAGCGAC | -0.184 |

| Sequence | PBM E-score |
| --- | --- |
| GCATTGAA | 0.0755 |
| CGTAAAAC | 0.0692 |
| CGACATTA | 0.163 |
| GTAGCCTA | -0.17 |
| CCCCCAGG | -0.0579 |
| GTGAAACA | 0.48 |
| ATGATTTC | 0.189 |
| ATCCTGGA | 0.0311 |
| GGTCCATA | -0.111 |
| AAGTAAGA | 0.163 |
| AAGGCACG | -0.118 |
| GGGGGATA | -0.192 |
| AAATGTCC | -0.0748 |
| AATGGCGT | -0.0391 |
| AAATTCCC | 0.0173 |
| GCGCTACA | -0.00414 |
| CATCTTTC | 0.00071 |
| ACACCCAT | 0.0672 |
| GCTAACGA | 0.0186 |
| AACTTACA | 0.132 |
| CATAAATG | 0.0736 |
| CGTGTCCC | -0.241 |
| GGCCAGGA | -0.0649 |
| ACTCATCG | -0.164 |
| GACAGGAC | -0.0473 |

| Sequence | PBM E-score |
| --- | --- |
| CAATGTCG | 0.148 |
| AATGAGTC | -0.181 |
| GACCATTA | -0.0549 |
| ACTTACAC | -0.0103 |
| AGCGCCTG | -0.153 |
| CTTAGCGA | -0.0541 |
| GCGTTGCC | -0.211 |
| ATGCTTAG | -0.205 |
| AAGAAGCT | -0.0792 |
| TACCGAAA | 0.0921 |
| TACACAGA | -0.134 |
| CCTTACAC | 0.161 |
| AACAAGCG | 0.0751 |
| AGGATTAA | 0.057 |
| CGCGTGAA | 0.164 |
| ATGGTCAG | 0.00808 |
| GAACTGGA | 0.156 |
| TATGAAAA | 0.152 |
| AACATGGT | -0.0907 |
| GGAGCTAA | -0.00628 |
| GATAGGCA | -0.0249 |
| CAAACTCC | 0.108 |
| TGAGCTAA | -0.0278 |
| AGAGACAA | -0.154 |
| CGAGCCGC | 0.118 |

| Sequence | PBM E-score |
| --- | --- |
| ATCCTAAC | -0.03 |
| AGGTAAGG | 0.0199 |
| ACAAATGA | 0.183 |
| AGACTACT | 0.0378 |
| GCCGACCA | -0.154 |
| CATAGGGG | -0.118 |
| GGACGCCA | -0.16 |
| ACCGCTTA | -0.157 |
| TAGGAAAA | 0.164 |
| CTCCTAAA | -0.135 |
| CAATATTA | 0.176 |
| CAGCAAGA | 0.0428 |
| CGCCATTA | 0.0104 |
| CTGCAAAC | -0.0883 |
| GCGGCAAA | 0.0181 |
| AATCCCCC | -0.12 |
| ATGTAATC | -0.0388 |
| AATCGCTG | -0.102 |
| CGAATGTA | -0.00511 |
| CCGTCTTA | -0.189 |
| AATGAAGC | -0.0558 |
| CCCTGTCC | -0.205 |
| GACTTGAC | -0.0322 |
| AGGCGGAG | 0.0156 |
| AGTCGGCA | -0.0216 |

| Sequence | PBM E-score |
| --- | --- |
| GCGCAGCC | -0.301 |
| ATTGTTCC | 0.0679 |
| AGAGATTG | 0.0539 |
| AGAGCTGA | -0.0939 |
| AAGCTCGG | -0.00139 |
| ACTCCCGG | -0.0353 |
| CAGATGTC | 0.023 |
| CACACGTC | -0.0759 |
| AAGTCACT | -0.0284 |
| GGCTGCCA | -0.0511 |
| CCCCGTAC | -0.0713 |
| AACGGAGC | -0.11 |
| TATTTCGA | 0.225 |
| AACCAACG | 0.0688 |
| GGTGGTAC | -0.281 |
| ACCCATGC | -0.134 |
| TCATCAGA | -0.0415 |
| AGACACCG | -0.0911 |
| CGACCAAC | -0.0558 |
| AATACTAG | 0.182 |
| AAGATCTC | 0.0658 |
| GGGAACAC | -0.0371 |
| CTCTACCC | 0.0287 |
| ACGGGGCC | -0.0376 |
| CTTTAAGC | 0.143 |

| Sequence | PBM E-score |
| --- | --- |
| CTCGATCC | 0.0884 |
| ATGACAGC | -0.0899 |
| GAGGAAGC | -0.0777 |
| GATGGAGA | 0.015 |
| CCTCCCTA | 0.12 |
| CTCAGCTC | -0.161 |
| AGGACTTC | -0.222 |
| AAACAAGA | 0.183 |
| AGACCACG | -0.255 |
| GTGGAAAA | 0.168 |
| GTGCGAAA | 0.133 |
| CGCGCCAC | 0.0895 |
| AGACCCAA | 0.0589 |
| CCAGCGTC | -0.0714 |
| CACTCATC | -0.113 |
| AGTAGCAA | 0.00033 |
| CAAAACCC | 0.243 |
| AGCAGCGC | 0.0541 |
| GGTGAGTA | 0.00046 |
| AATTCCGA | 0.0921 |
| AGATCTGG | -0.12 |
| GGCAACAA | 0.0301 |
| AGAGATTC | 0.0905 |
| ACACGAAA | 0.212 |
| GTCAATTA | -0.119 |

| Sequence | PBM E-score |
| --- | --- |
| ACGGTGCG | 0.0256 |
| TAGTTATA | 0.0821 |
| GACAATGC | -0.00301 |
| GAGATCCA | -0.113 |
| CGCGATCC | -0.116 |
| CTTACAAA | 0.143 |
| ACCGCCGA | 0.0296 |
| ATTCTGAG | 0.0929 |
| TATTGTCA | 0.0537 |
| ATTTCACA | 0.205 |
| ACATGCCT | -0.152 |
| CATCTTCG | -0.0075 |
| GTCACTGA | 0.0514 |
| AACTTGGC | -0.122 |
| CTAACTAA | 0.0174 |
| AGCCTGAA | 0.112 |
| ATGCTCGC | -0.0993 |
| AAATCCCC | 0.0647 |
| ACGTCTAC | -0.118 |
| CCAGAGCG | -0.1 |
| GCGCTAAC | 0.0237 |
| CCTGGACC | -0.0982 |
